Results as given in PubChem BioAssay AID504339 (National Center for Advancing Translational Sciences (NCATS), 2011).
Hit rate of the full screen: of about 390,000 compounds, about 17,000 (4.4%) were called active. Inconclusive results, whose numbers are uncertain, are shown with a selection of clear calls. Calls come from the whole dose curve; as a rule, active = well fitted inhibition curve with a large enough effect; inconclusive = small, poorly fitted or top-dose-only effect; inactive = no such curve, though single readings can be large or run the other way. A potency beside an inconclusive call is a rough fit, not a confirmed value.

Target: Lysine-specific demethylase 4A (Homo sapiens) (UniProt O75164)
Test: qHTS Assay for Inhibitors of JMJD2A-Tudor Domain; note: nearly all actives have a fitted effect of over 50% in size
Conditions: AlphaScreen JMJD2A-Tudor / H3K4me3 peptide binding; activity change, negative = inhibition: at 114 µM (top of the series)
% is set by controls: 0 for no effect and ±100 for the full control effect; potency is the fitted concentration of half-maximal effect; tags give direction and shape of the fitted curve.

UniProt O75164, sequence (O75164 whole entry, looked up, the tested form may be a part): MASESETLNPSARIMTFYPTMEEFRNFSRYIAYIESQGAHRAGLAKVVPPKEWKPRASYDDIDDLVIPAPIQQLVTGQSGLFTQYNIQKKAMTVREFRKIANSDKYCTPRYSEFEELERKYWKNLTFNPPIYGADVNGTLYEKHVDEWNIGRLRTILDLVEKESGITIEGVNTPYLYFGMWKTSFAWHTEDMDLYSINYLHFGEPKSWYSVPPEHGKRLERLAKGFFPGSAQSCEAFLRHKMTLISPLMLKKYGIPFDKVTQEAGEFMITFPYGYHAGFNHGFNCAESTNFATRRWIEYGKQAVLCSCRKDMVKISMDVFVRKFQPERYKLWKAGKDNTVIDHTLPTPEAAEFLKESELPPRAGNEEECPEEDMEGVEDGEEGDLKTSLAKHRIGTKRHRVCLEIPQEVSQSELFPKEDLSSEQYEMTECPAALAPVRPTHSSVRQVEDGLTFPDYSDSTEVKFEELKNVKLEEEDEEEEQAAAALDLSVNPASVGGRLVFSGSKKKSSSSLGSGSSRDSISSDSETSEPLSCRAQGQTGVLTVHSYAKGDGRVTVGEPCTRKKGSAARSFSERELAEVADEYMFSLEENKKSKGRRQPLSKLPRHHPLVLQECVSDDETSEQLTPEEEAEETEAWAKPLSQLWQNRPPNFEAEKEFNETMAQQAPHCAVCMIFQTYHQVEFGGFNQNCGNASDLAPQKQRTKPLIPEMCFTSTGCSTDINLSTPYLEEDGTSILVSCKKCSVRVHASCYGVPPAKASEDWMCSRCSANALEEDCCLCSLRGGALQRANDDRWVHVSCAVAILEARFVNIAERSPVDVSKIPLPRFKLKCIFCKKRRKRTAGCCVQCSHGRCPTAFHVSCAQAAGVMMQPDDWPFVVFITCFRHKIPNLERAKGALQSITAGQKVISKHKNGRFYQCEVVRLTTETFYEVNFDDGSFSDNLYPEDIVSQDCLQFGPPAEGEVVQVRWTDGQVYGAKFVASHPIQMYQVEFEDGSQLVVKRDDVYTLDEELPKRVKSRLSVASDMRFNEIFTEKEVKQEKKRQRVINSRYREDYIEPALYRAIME

Structure (SMILES)	Potency	activity change, negative = inhibition
COc1ccc(N2CCN(c3ccc4nnc(CCC(=O)Nc5ccc(C)cc5)n4n3)CC2)cc1	inconclusive: 50.1 µM [inhibitor, partial curve]	–
Cn1nc(C(=O)N2CCN(c3ccc(F)cc3)CC2)c2c1-c1ccccc1SC2	inconclusive: 44.7 µM [inhibitor, partial curve]	–
COc1cc2c(cc1OC)C(c1cccc([N+](=O)[O-])c1)N(C(=O)c1ccc(F)cc1)CC2 (centres undefined)	inconclusive: 39.8 µM [inhibitor, partial curve]	–
Cc1c(C)c2ccc(OC(C)C(=O)NCCc3c[nH]c4ccccc34)cc2oc1=O (centres undefined)	inconclusive: 89.1 µM [inhibitor, partial curve]	–
COCCCN1C(=O)C(=O)/C(=C(/O)c2ccc(OCC(C)C)cc2C)C1c1cccnc1 (centres undefined)	active: 79.4 µM	–
O=C(NC1CCCCC1)c1csnn1	–	inactive: -6.25%
CCc1ccc(C(=O)c2cn(CC(=O)Nc3cc(F)ccc3F)c3nc(C)ccc3c2=O)cc1	inconclusive: 89.1 µM [inhibitor, single point]	–
O=C(Nc1cccc(Cl)c1)C1CCCN(c2ncnc3c2nc2n3CCCCC2)C1 (centres undefined)	–	inactive: -23.9%
O=C1/C(=C/c2ccccc2)CCCc2ccccc21	active: 100 µM	–
CSc1ccc(CCNC(=O)c2cc3cc(S(=O)(=O)N4CCCCC4)ccc3n2C)cc1	–	inactive: -16.6%
COc1cc(/C=N/NC(=O)CNc2n[nH]c(=O)[nH]c2=O)ccc1OCc1ccccc1	–	inactive: -11.4%
COc1ccc(S(=O)(=O)N(C(C)=O)c2ccc3oc(=O)sc3c2)cc1	inconclusive: 89.1 µM [inhibitor, single point]	–
C=CCN1c2ccccc2[C@]23C[C@@H](C(=O)OC)N(C(=O)C4CCC4)C2=NC(C(=O)OC)=C(C(=O)OC)[C@H]13	inconclusive: 20 µM [inhibitor, full curve]	–
C/C(=N\Nc1nncc2ccccc12)c1ccc(O)cc1	inconclusive: 31.6 µM [inhibitor, partial curve]	–
O=C(CN1C2CCC1CC(NC(=O)Nc1ccccc1)C2)NCc1ccco1 (centres undefined)	inconclusive: 100 µM [inhibitor, single point]	–
Cc1cccc(C(=O)NC2=NC(c3ccc(Cl)cc3)CC(=O)N2)c1 (centres undefined)	–	inactive: -18.8%
Cc1ccc(C(=O)N/C(=C/c2cccs2)C(=O)NCCc2c[nH]c3ccccc23)cc1	inconclusive: 35.5 µM [inhibitor, partial curve]	–
Cc1nnc2c(N3CCN(c4ccccc4F)CC3)nc3ccc(C(=O)c4ccccc4)cc3n12	–	inactive: 2.76%
COc1ccc(-n2c(C)cc(/C=C3\C(=N)N4N=C(CC(=O)N5CCOCC5)SC4=NC3=O)c2C)c(OC)c1	inconclusive: 39.8 µM [inhibitor, partial curve]	–
